Reference: patent US20240409609A1, “REVERSIBLE LYSINE COVALENT MODIFIERS OF EGFR AND USES THEREOF” (Terremoto Biosciences, Inc., priority 2021, published 2024)
Where two headings read alike, the source gives them in different places.

Assays:
[1] = target: EGFR (d746-750) T790M C797S (Homo sapiens (Human), UniProt P00533, C797S/DEL746-750/T790M); assay: EGFR biochemical assay (AssayQuant chelation-enhanced fluorescence)
[2] = target: EGFR T790M C797S L858R in Ba/F3 cells (Homo sapiens (Human), UniProt P00533, C797S/L858R/T790M); assay: Ba/F3 pEGFR assay (AlphaLISA p-EGFR Tyr1068); format: cell-based; settings: 2 hrs treatment
Procedure: (§1) Cellular activity was determined using the Ba/F3 system for studying oncogenic mutant kinases (Warmuth 2007). […] Transduced cells were maintained in RPMI 1640 with 10% FBS. EGFR WT transduced cells were grown in media supplemented with EGF. To assay cellular activity of inhibitors, cells were treated with inhibitor from 1000X DMSO stock dilutions and incubated for 2 hrs at 37° C. 5% CO2. Subsequently, p-EGFR (Tyr1068) was quantified using a commercial sandwich immunoassay (PerkinElmer AlphaLISA SureFire assay; ALSU-PEGFR) according to the manufacturer's instructions. […] Curr Opin Oncol 19, 55-60 (2007), which is incorporated herein in its entirety.

[3] = target: EGFR del746-750 T790M C797S in Ba/F3 cells (Homo sapiens (Human), UniProt P00533, C797S/DEL746-750/T790M); assay: Ba/F3 pEGFR assay (AlphaLISA p-EGFR Tyr1068); format: cell-based; settings: 2 hrs treatment; read-out: pEGFR Ba/F3 del19/T790M/C797S IC50
Procedure: as §1

[4] = target: EGFR L858R/T790M/C797S (Homo sapiens (Human), UniProt P00533, C797S/L858R/T790M); assay: EGFR biochemical assay (AssayQuant chelation-enhanced fluorescence)
[5] = read-out: AssayQuant EGFR del19/TM/CS IC50, 30 min preincubation, reaction time 150 min
[6] = read-out: AssayQuant EGFR LR/TM/CS IC50, 30 min preincubation, reaction time 150 min

SMILES	IC50 [1, 5]	IC50 [2]	IC50 [3]	IC50 [4, 6]	IC50 [1]	IC50 [4]
COc1cc(N2CCC(N3CCN(C)CC3)CC2)ccc1Nc1ncc(-c2cc(F)c(O)c(C=O)c2)c(Nc2ccccc2)n1 [Compound 9]	35.1 nM	600 nM	868 nM	20.9 nM	–	–
COc1cc(N2CCC(N3CCN(C)CC3)CC2)ccc1Nc1ncc(-c2cc(C=O)c(O)cc2OC)c(Nc2ccccc2)n1 [Compound 13]	> 1000 nM	> 10000 nM	> 10000 nM	290 nM	–	–
COc1cc(N2CCC(N3CCN(C)CC3)CC2)ccc1Nc1ncc(C#Cc2cccc(C=O)c2O)c(Nc2ccccc2)n1 [Compound 16]	> 1000 nM	–	–	> 1000 nM	–	–
COc1cc(N2CCC(N3CCN(C)CC3)CC2)ccc1Nc1ncc(C#Cc2cccc(O)c2C=O)c(Nc2ccccc2)n1 [Compound 18]	175 nM	386 nM	628 nM	11.5 nM	–	–
COc1cc(N2CCC(N3CCN(C)CC3)CC2)ccc1Nc1ncc(-c2ccc(O)c(C=O)c2)c(-c2ccccc2)n1 [Compound 22]	98.7 nM	–	–	6.01 nM	–	–
COc1cc(N2CCC(N3CCN(C)CC3)CC2)ccc1Nc1ncc(-c2ccc(C=O)c(O)c2)c(Nc2ccccc2P(C)(C)=O)n1 [Compound 24]	> 1000 nM	–	–	21.7 nM	–	–
COc1cc(N2CCC(N3CCN(C)CC3)CC2)ccc1Nc1ncc(Cl)c(Nc2cccc(-c3cccc(C=O)c3O)c2)n1 [Compound 25]	> 1000 nM	–	–	390 nM	–	–
COc1cc(N2CCC(N3CCN(C)CC3)CC2)ccc1Nc1ncc(-c2ccc(O)c(C=O)c2)c(Nc2ccccc2P(C)(C)=O)n1 [Compound 27]	8.68 nM	–	–	15.3 nM	–	–
CC(C)c1ccc(N2CC(CS(C)(=O)=O)C2)c2cnc(Nc3ccnc(-c4cccc(-c5cccc(O)c5C=O)c4)n3)cc12 [Compound 46]	187 nM	726 nM	2020 nM	53.2 nM	–	–
CC(C)c1ccc(N2CC(CS(C)(=O)=O)C2)c2cnc(Nc3ccnc(Oc4cccc(O)c4C=O)n3)cc12 [Compound 48]	> 1000 nM	> 10000 nM	> 10000 nM	596 nM	–	–
CC(C)c1ccc(N2CC(CS(C)(=O)=O)C2)c2cnc(Nc3ccnc(N(C)Cc4cccc(C=O)c4O)n3)cc12 [Compound 49]	797 nM	8980 nM	> 10000 nM	> 1000 nM	–	–
CN1CCN(Cc2ccc3[nH]/c(=N\C(=O)c4cc(F)cc(Oc5cccc(O)c5C=O)c4)n(CC(C)(C)O)c3c2)CC1 [Compound 53]	2.27 nM	52.2 nM	93.9 nM	0.275 nM	–	–
CN1CCN(c2ccc3[nH]/c(=N\C(=O)c4ccnc(Oc5cccc(O)c5C=O)c4)n(CC(C)(C)O)c3c2)CC1 [Compound 56]	99.4 nM	> 10000 nM	706 nM	87.4 nM	–	–
CN1CCN(Cc2ccc3[nH]/c(=N\C(=O)c4cc(F)nc(Oc5cccc(O)c5C=O)c4)n(CC(C)(C)O)c3c2)CC1 [Compound 60]	2.65 nM	124 nM	117 nM	0.438 nM	–	–
CC(C)Cn1/c(=N/C(=O)c2ccnc(Oc3cccc(O)c3C=O)c2)[nH]c2ccc(CN3CCN(C)CC3)cc21 [Compound 65]	1.59 nM	38.6 nM	65.9 nM	0.616 nM	–	–
CN1CCN(Cc2ccc3[nH]/c(=N\C(=O)c4ccnc(Oc5cc(F)cc(O)c5C=O)c4)n(CC(C)(C)O)c3c2)CC1 [Compound 66]	5.96 nM	202 nM	373 nM	0.629 nM	–	–
CN1CCN(Cc2ccc3[nH]/c(=N\C(=O)c4ccnc(Oc5c(F)ccc(O)c5C=O)c4)n(CC(C)(C)O)c3c2)CC1 [Compound 68]	2.98 nM	518 nM	457 nM	0.899 nM	–	–
CN1CCN(Cc2ccc3[nH]/c(=N\C(=O)c4ccnc(C#Cc5cccc(NS(C)(=O)=O)c5C=O)c4)n(CC(C)(C)O)c3c2)CC1 [Compound 69]	2.68 nM	> 10000 nM	> 10000 nM	0.911 nM	–	–

Further lines, results first:

IC50 [1, 5]	IC50 [2]	IC50 [3]	IC50 [4, 6]	IC50 [1]	IC50 [4]	SMILES
679 nM	–	–	674 nM	–	–	COc1cc(N2CCC(N3CCN(C)CC3)CC2)ccc1Nc1ncc(-c2cc(C=O)c(O)cc2C)c(Nc2ccccc2)n1 [Compound 12]
170 nM	> 10000 nM	> 10000 nM	18 nM	–	–	COc1cc(N2CCC(N3CCN(C)CC3)CC2)ccc1Nc1ncc(-c2cccc(C=O)c2)c(Nc2ccccc2)n1 [Compound 14]
207 nM	6980 nM	6240 nM	57.9 nM	–	–	CNc1nc(Nc2ccc(N3CCC(N4CCN(C)CC4)CC3)cc2OC)ncc1-c1ccc(O)c(C=O)c1 [Compound 15]
> 1000 nM	> 10000 nM	5590 nM	> 1000 nM	–	–	COc1cc(N2CCC(N3CCN(C)CC3)CC2)ccc1Nc1ncc(-c2ccc(NC(C)=O)c(C=O)c2)c(Nc2ccccc2)n1 [Compound 20]
> 1000 nM	–	–	> 1000 nM	–	–	COc1cc(N2CCC(N3CCN(C)CC3)CC2)ccc1Nc1ncc(-c2ccc(O)c(C=O)c2)c(Oc2ccccc2)n1 [Compound 21]
> 1000 nM	> 10000 nM	> 10000 nM	> 1000 nM	–	–	COc1cc(N(C)CCN(C)C)c(NC(C)=O)cc1Nc1nccc(-c2cn(Cc3cccc(O)c3C=O)c3ccccc23)n1 [Compound 28]
672 nM	> 10000 nM	> 10000 nM	> 1000 nM	–	–	COc1cc(N(C)CCN(C)C)c(NC(C)=O)cc1Nc1nccc(-c2cn(Cc3ccc(C=O)c(O)c3)c3ccccc23)n1 [Compound 29]
125 nM	4730 nM	> 10000 nM	75.7 nM	–	–	COc1cc(N(C)CCN(C)C)c(NC(C)=O)cc1Nc1nccc(-c2cn(Cc3ccc(O)c(C=O)c3)c3ccccc23)n1 [Compound 30]
–	–	–	–	579 nM	186 nM	COc1cc(N(C)CCN(C)C)ccc1Nc1ncc(Cl)c(-c2cn(Cc3cccc(C=O)c3O)c3ccccc23)n1 [Compound 31]
62.6 nM	3340 nM	3610 nM	13.7 nM	–	–	COc1cc(N2CCC(N3CCN(C)CC3)CC2)ccc1Nc1ncc(Cl)c(Nc2ccc(NCc3ccc(C=O)c(O)c3)cc2)n1 [Compound 33]
16.2 nM	4820 nM	9970 nM	11.6 nM	–	–	COc1cc(N2CCC(N3CCN(C)CC3)CC2)ccc1Nc1ncc(Cl)c(Nc2ccccc2-c2c(OC)ccc(C=O)c2O)n1 [Compound 34]
29.3 nM	3090 nM	> 10000 nM	72.7 nM	–	–	COc1cc(N2CCC(N3CCN(C)CC3)CC2)ccc1Nc1ncc(Cl)c(Nc2ccc(O)c(C=O)c2)n1 [Compound 35]
54.4 nM	687 nM	6230 nM	5.19 nM	–	–	CC(C)c1ccc(N2CC(CS(C)(=O)=O)C2)c2cnc(Nc3ccnc(N(C)Cc4cccc(O)c4C=O)n3)cc12 [Compound 43]
> 1000 nM	> 10000 nM	> 10000 nM	43.7 nM	–	–	CC(C)c1ccc(N2CC(CS(C)(=O)=O)C2)c2cnc(Nc3ccnc(N(C)CCc4cccc(O)c4C=O)n3)cc12 [Compound 45]
15.4 nM	–	–	101 nM	–	–	CC(C)c1ccc(N2CC(CS(C)(=O)=O)C2)c2cnc(Nc3ccnc(-c4ccc(O)c(C=O)c4)n3)cc12 [Compound 47]
> 1000 nM	–	–	> 1000 nM	–	–	CC(C)c1ccc(N2CC(CS(C)(=O)=O)C2)c2cnc(Nc3ccnc(-c4cccc(C=O)c4O)n3)cc12 [Compound 50]
2.18 nM	30.8 nM	32.7 nM	0.307 nM	–	–	CN1CCN(Cc2ccc3[nH]/c(=N\C(=O)c4cncc(Oc5cccc(O)c5C=O)c4)n(CC(C)(C)O)c3c2)CC1 [Compound 55]
2.44 nM	405 nM	460 nM	0.422 nM	–	–	CN1CCN(Cc2ccc3[nH]/c(=N\C(=O)c4cc(C=O)cc(Oc5cccc(O)c5C=O)c4)n(CC(C)(C)O)c3c2)CC1 [Compound 58]
6 nM	365 nM	293 nM	0.424 nM	–	–	Cc1ccc(C(=O)/N=c2\[nH]c3ccc(CN4CCN(C)CC4)cc3n2CC(C)(C)O)cc1Oc1cccc(O)c1C=O [Compound 59]
15.1 nM	97.2 nM	315 nM	0.515 nM	–	–	Cc1cc(Oc2cccc(O)c2C=O)cc(C(=O)/N=c2\[nH]c3ccc(CN4CCN(C)CC4)cc3n2CC(C)(C)O)c1 [Compound 61]
4.56 nM	241 nM	276 nM	0.526 nM	–	–	CC(C)(O)Cn1/c(=N/C(=O)c2ccnc(Oc3cccc(O)c3C=O)c2)[nH]c2ccc(CN3CC(C(C)(C)O)C3)cc21 [Compound 63, (E)-2-(2-formyl-3-hydroxyphenoxy)-N-(1-(2-hydroxy-2-methylpropyl)-6-((3-(2-hydroxypropan-2-yl)azetidin-1-yl)methyl)-1,3-dihydro-2H-benzo[d]imidazol-2-ylidene)isonicotinamide]
591 nM	–	–	738 nM	–	–	CC(C)(O)Cn1/c(=N/C(=O)c2ccnc(C#Cc3cccc(C=O)c3O)c2)[nH]c2ccccc21 [Compound 137]
